In all, about 45,000 compounds went through this assay and about 65 (0.1%) were called active. The call rests on the fitted dose curve; in most records, active means well fitted activation curve with a large enough effect; inconclusive means small, poorly fitted or top-dose-only effect; inactive means no such curve, though single readings can be large or run the other way. This is one part of the list.
What follows are compounds tested against Galactocerebrosidase (Homo sapiens) (UniProt P54803) (assay: A Novel Cell-Based Assay to Identify Small Molecules for B -Galactocerebrosidase). Conditions: 145M-Twi-hGALC-G270D cells (Twitcher mouse brain line with human GALC G270D), HMU-beta-Gal fluorescence, 48 h; series mostly up to 57.5 µM; activation: at the top concentration.
Procedure, shortened: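 Live 145M-Twi cells (Twitcher mouse brain-derived, GALC-null) stably expressing human GALC-G270D, with a wild-type GALC line, were compound-treated. Residual GALC activity was then read as fluorescence from 0.1 mM final HMU-β-gal at pH 5.2; higher signal means activation.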
Further: 0% is about no effect; nearly all actives have a fitted effect of over 65% in size.

UniProt P54803, sequence (P54803 whole entry, looked up): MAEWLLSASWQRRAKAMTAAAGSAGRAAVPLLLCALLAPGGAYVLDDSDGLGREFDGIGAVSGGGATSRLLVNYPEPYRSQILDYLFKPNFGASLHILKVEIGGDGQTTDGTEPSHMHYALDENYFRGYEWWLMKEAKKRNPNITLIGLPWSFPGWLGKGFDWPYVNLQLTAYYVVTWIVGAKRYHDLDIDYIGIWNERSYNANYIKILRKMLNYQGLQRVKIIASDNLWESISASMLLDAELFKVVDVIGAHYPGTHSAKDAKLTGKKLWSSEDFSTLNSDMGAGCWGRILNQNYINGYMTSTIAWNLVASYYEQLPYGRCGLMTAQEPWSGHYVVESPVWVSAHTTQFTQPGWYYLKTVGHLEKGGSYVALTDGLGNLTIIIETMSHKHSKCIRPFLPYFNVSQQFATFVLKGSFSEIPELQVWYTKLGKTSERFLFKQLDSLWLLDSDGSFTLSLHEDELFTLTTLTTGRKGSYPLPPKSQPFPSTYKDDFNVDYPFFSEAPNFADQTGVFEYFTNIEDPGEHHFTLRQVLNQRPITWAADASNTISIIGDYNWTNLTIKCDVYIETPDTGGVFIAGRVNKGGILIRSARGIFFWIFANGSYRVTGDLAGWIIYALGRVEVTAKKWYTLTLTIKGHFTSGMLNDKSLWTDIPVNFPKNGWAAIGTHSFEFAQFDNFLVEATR

activation, inactive:
COc1ccc(CNS(=O)(=O)c2ccc3c(c2)C(C)(C)C(=O)N3C)cc1OC -9.03%, O=C(NCc1ccccc1F)C(=O)NCC(c1ccco1)S(=O)(=O)c1ccccc1 (stereo not given) -12.8%, Cc1ccc(C)c(NS(=O)(=O)c2ccc3c(c2)CCCN3C(=O)C2CCC2)c1 -17.3%, Cc1ccc(C(C)C)c(OCC(=O)Nc2ccc(-c3nc4ncccc4o3)cc2C)c1 -10.1%, CC(=O)N1CCc2c(sc(NC(=O)CSc3ccc(C)cc3)c2-c2nc3ccccc3s2)C1 -15.6%, CCOC(=O)C1=C(CS(=O)(=O)c2ccc(F)c(C)c2)NC(=O)NC1c1ccc(F)c(F)c1 (stereo not given) 3.14%, Cc1c(C(=O)Nc2ccccc2Cl)oc2ccc(S(=O)(=O)N3CCCCCC3)cc12 -17.2%, Cc1cccc(N2CCN(C(=O)c3cccc(-n4c(C)nc5cccnc54)c3)CC2C)c1 (stereo not given) -13.8%, COC(=O)c1cc2sc(Cl)cc2n1Cc1nc(-c2ccccc2F)oc1C -5.31%, O=C1CC(=O)Nc2cc(S(=O)(=O)Nc3cccc(Br)c3)ccc2N1 -13.5%, Cc1ccc(CCNC(=O)c2ccc(CNS(=O)(=O)c3ccc(F)cc3)cc2)cc1 -17.4%, COc1ccc(NS(=O)(=O)c2cc3c4c(c2)CC(=O)N4CCC3)cc1Cl -14.7%, O=C(NC1(C(F)(F)F)N=C(c2ccccc2)N(C2CCCCC2)C1=O)c1ccccc1F (stereo not given) -8.92%, CCn1c(CN2CCC(C)CC2)nc2cc(NC(=O)c3cccc([N+](=O)[O-])c3)ccc21 -17.2%, COc1ccc(OC)c(CCNc2ncnc3onc(C)c23)c1 -12.1%, Cc1cc(C)cc(NC(=O)Nc2c[nH]c(=O)[nH]c2=O)c1 -9.69%, Cc1cc(C)c2c(n1)SCC(=O)N2CC(=O)Nc1c(C)cccc1C -5.42%, COc1ccccc1Nc1nn2c(=O)c3ccc(C(=O)N4CCC(C)CC4)cc3nc2s1 -19.6%, O=C(Cn1nc(-c2ccccc2)ccc1=O)NCc1ccc(F)cc1Cl -14.1%, COc1cc(NC(=O)c2c(-c3ccc(C)cc3)nnc3ccccc23)cc(OC)c1OC -2.27%, Cc1oc2c(c1C(=O)Nc1cccc(Br)c1)C1=NCCN1C=N2 -18.6%, O=C(c1nc(-c2ccc(Cl)cc2)n2c1CCCCC2)N1CCN(c2ccccc2F)CC1 -10.2%, COc1ccccc1CNC(=O)CC1N=C2c3ccccc3N=C(SCC(=O)Nc3ccc(F)cc3)N2C1=O (stereo not given) -21.9%, CCOc1cc(C(=O)Nc2ccc3oc(-c4ccc(F)cc4Cl)nc3c2)cc(OCC)c1OCC -1.54%, Cc1ccc(NC(=O)c2cc(C)nn2-c2ccccc2)cc1 10.9%, COc1ccc(N(Cc2cccs2)C(=O)c2ccccc2C)cc1 -16.1%, CC(=O)c1ccc(N2C(=O)N(Cc3cccc(C(F)(F)F)c3)c3ccccc3S2(=O)=O)cc1 -8.96%, CC(=O)Nc1ccc(NC(=O)CCCc2nc(-c3ccc(C(C)(C)C)cc3)no2)cc1 -6.02%, CC1=C(C(=O)OC2CCCC2)C(c2ccc(F)cc2F)CC(=O)N1 (stereo not given) -0.78%, Cc1ccc(CS(=O)(=O)c2cn(CC(=O)N(C)c3ccccc3)c3ccccc23)cc1 2.68%, COc1ccc(OCC(=O)NCC2(N3CCN(C)CC3)CCCCC2)cc1 -1.41%, O=C(CSc1nc(-c2ccc(F)cc2)cc(C(F)(F)F)n1)NCc1ccccc1 -10.9%, CCCCNC(=O)CCC(=O)NNc1nc2ccccc2c2nc(-c3ccccc3)nn12 -14.1%, CC(C)(C)OC(=O)N1CCC(c2c(C(=O)NC3CCN(Cc4ccccc4)CC3)cnn2-c2cccc(F)c2)CC1 -8.01%, CCOC(=O)c1c(-c2ccccc2)oc2ccc(NS(=O)(=O)c3ccc(OC)cc3)cc12 -23.2%, O=[N+]([O-])c1cc(-c2nc(-c3ccccc3)no2)ccc1NCC1CCCO1 (stereo not given) -12.8%, Cc1cccc(C(=O)Nc2c3c(nn2-c2ccc(Cl)cc2)CS(=O)(=O)C3)c1 -11.5%, CCOC(=O)c1ccc2c(c1)N(Cc1cccc(OC)c1)C(=O)c1ccccc1S2(=O)=O -10.4%, CCC(CC)C(=O)Nc1ccc(OCc2cc(=O)n3ccsc3n2)cc1 -8.81%, CC(=O)Nc1ccccc1-c1nc2ccccc2n(CC(=O)c2ccc(C)c(C)c2)c1=O 6.73%, Cc1ccc2ncc(C(=O)NCc3ccccc3Cl)c(=O)n2c1 -15.7%, CC1CCN(c2ccc(NC(=O)c3cccc(Cl)c3)cc2C(=O)O)CC1 -10.4%, Cc1ccc(-c2cc(C(=O)NC(C)c3ccccc3)c3ccccc3n2)cc1C (stereo not given) -9.56%, CCCS(=O)(=O)c1ncc(Cl)c(C(=O)N2CCN(c3ccc(OC)cc3)CC2)n1 -13.3%, CCc1ccccc1NC(=O)c1ccc(F)c(S(=O)(=O)NC2CCCCCC2)c1 -7.85%, Cc1ccc(NC(=O)CSc2nc3ccccc3c3nc(CCn4cncc4C)nn23)cc1F -12.2%, CCOc1cccc2sc(N(Cc3cccnc3)C(=O)C3CCCCC3)nc12 -8.63%, Cc1ccc(NC(=O)CSCc2cnn(-c3ccccc3)c2-n2cccc2)c(C)c1 6%, COc1ccc(-c2cc(C(=O)Oc3cccc(C)c3)c3ccccc3n2)cc1 -12.7%, Cc1ccc(CCNC(=O)C2CCN(c3nnc(C)c4c(C)n(-c5ccccc5)nc34)CC2)cc1 -3.52%, O=C(CCCCn1c(=O)c2ccccc2n(Cc2ccc(Cl)cc2)c1=O)NCc1ccccc1Cl -1.06%, Cc1cc(OC(C)C(=O)N(Cc2ccco2)Cc2ccccc2F)cc(C)c1Cl (stereo not given) 2.77%, COc1ccc(C)cc1NCc1nnc2n1CCCCC2 2.63%, Cn1c(=O)cc(OCC(=O)N2CCN(c3ccccc3)CC2)c2ccccc21 -0.971%, COc1ccc(NC(=O)CSc2nc3ncccc3[nH]2)c(OC)c1 -7.16%, COc1ccc(NC(=O)C2CCCN(C(=O)c3cnn(-c4ccc(F)cc4)c3-n3cccc3)C2)cc1 (stereo not given) -0.0735%, CCC(=O)N1CCc2cc(Br)cc(S(=O)(=O)N3CCN(c4ccc(C(C)=O)cc4)CC3)c21 -26.5%, CN1CCN(C(c2ccccc2Cl)c2sc3nc(-c4ccco4)nn3c2O)CC1 (stereo not given) -12.9%, Cc1ccc(C)c(N2CCN(CCCNC(=O)C3COc4ccccc4C3)CC2)c1 (stereo not given) -21.6%, CCN1CCC(N(Cc2ccc3c(c2)OCO3)C(=O)Nc2cc(Cl)ccc2C(=O)OC)CC1 -29%, Cc1cccc(NC(=O)C2CCCN(S(=O)(=O)c3cccc4nonc34)C2)c1C (stereo not given) -18.8%, CCCCN(C)CCCNC(=O)c1ccc2nc(N3CCCCC3)sc2c1 -11.4%, CCN(C(=O)CCc1nc(-c2ccc(C)cc2)no1)c1cc(C)ccc1C -12.1%, Cc1cc2oc(=O)c(CC(=O)NCCc3ccccc3)c(C)c2c2occ(C(C)(C)C)c12 -12.3%, Cc1cccc(N2CCN(C(=O)c3cn(C4CCCCC4)c(=O)c4c3c3ccccc3n4C)CC2)c1C -17.7%, Cc1cc(C(=O)O)c2c(=O)n(C)c(=O)n(C)c2n1 -7%, COc1ccc(-c2cn3c(n2)sc2cc(C(=O)NC4CCCc5ccccc54)ccc23)cc1 (stereo not given) 0.039%, CCCOC(=O)c1c(C)oc2c1cc(NS(=O)(=O)c1ccc(OCC)cc1)c1ccccc12 -1.16%, COc1cc2c(cc1NC(=O)COc1cc(C)ccc1C)oc1ccccc12 -10.6%, Cc1c(C)n(Cc2ccccc2)c2ccc(C(=O)NC(C)c3ccccc3)cc12 (stereo not given) -12.3%, Cc1ccc(Cn2c(CNS(=O)(=O)c3c(C)cc(C)cc3C)nc3cccnc32)cc1 -10.5%, CC(=O)Nc1nonc1-c1nnc(SCC(=O)Nc2ccc(F)cc2F)n1-c1ccccc1 -9.3%, CCN(Cc1ccccc1)Cc1c(O)ccc2c(=O)c(-c3ccccc3OC)c(C(F)(F)F)oc12 10.1%, Cc1cccc(OCCSc2nc3ccccc3n2CC(=O)N2CCCCC2)c1C -30.3%, CCc1ccc(OCC(=O)N(Cc2cccs2)c2ccc(Cl)cc2)cc1 -12.1%, CCn1ccc2cc(S(=O)(=O)N3CCCN(C(=O)Nc4ccccc4OC)CC3)ccc21 -10.8%, Cc1nc(CC(=O)Nc2ccc(C)c(C)c2)cs1 -4.58%, COc1ccc(N2CC(NC(=O)/C=C\c3ccc(OC)c(OC)c3)CC2=O)cc1 (stereo not given) -5.03%, CCc1ccc(-n2c(SC(CC)C(=O)N(CC)CC)nc3n[nH]c(C)c3c2=N)cc1 (stereo not given) -13.7%, CCOC(=O)N1CCN(S(=O)(=O)N2CCCC(C(=O)NCc3cc(OC)ccc3OC)C2)CC1 (stereo not given) 4.94%, CCOCCCNC(=O)C1CCCN(Cc2nc(-c3ccc(CC)cc3)oc2C)C1 (stereo not given) -17.3%, COc1ccc(-c2nc(CS(=O)CC(=O)NCc3ccc(F)cc3)c(C)o2)cc1OC (stereo not given) -13.7%, Cc1ccc(-c2nc3ccc(Cl)cn3c2Nc2ccc3c(c2)OCCO3)o1 -11%, CCCCOc1ccc(C2=NC(c3ccncc3)=Nc3ccc(Br)cc3N2)cc1 -5.44%, CCc1cccc(CC)c1NC(=O)Cn1nnc2sc(-c3ccccc3)cc2c1=O -7.67%, COc1ccc(N2CCN(C(CNC(=O)CC(C)C)c3ccc4c(c3)OCO4)CC2)cc1 (stereo not given) -9.77%, Cc1ccc(/C=C/c2onc(C)c2S(=O)(=O)N2CCC(C(=O)N3CC(C)Oc4ccccc43)CC2)cc1 (stereo not given) -10.1%, CCCCCn1c(=O)[nH]c2cc(C(=O)N3CCN(c4ccccc4)CC3)ccc2c1=O -15.8%, COc1ccc(OCC(=O)Nc2ccc(C(=O)OCc3cc(=O)n4nc(C)sc4n3)cc2)cc1 -15.6%, CCOc1ccccc1N(CC)C(=O)Nc1cn(C)c(=O)c2ccccc12 -11.7%, CCCCCC(=O)O[C@]1(C(C)=O)CC[C@H]2[C@@H]3CCC4=CC(=O)CC[C@]4(C)[C@H]3CC[C@@]21C -8.26%, Cc1c(Cl)cccc1-n1ncc(C(=O)N2CCc3ccccc3C2)c1C1CCN(C(=O)OC(C)(C)C)CC1 19.1%, COc1ccccc1NC(=O)CCS(=O)(=O)c1ccc2nc(C)sc2c1 -9.39%, Cc1ccc(C(Nc2ccccn2)c2ccc3cccnc3c2O)cc1 (stereo not given) -9.85%, COc1cc(Cl)c(NS(=O)(=O)c2ccc3c(c2)CC(C)N3C(=O)C2CCC2)c(OC)c1 (stereo not given) -25%
